The results in this text go back to patent US20240252641A1 (TCR2 THERAPEUTICS, published 2024).

T1: CD70 on cells (CHO-CD70, JVM-3, U266, Raji, THP-1, T cells) (human, UniProt P32970 1-193)
T1 construct: whole, on cells; also called cell-surface CD70
T1 sequence (looked up): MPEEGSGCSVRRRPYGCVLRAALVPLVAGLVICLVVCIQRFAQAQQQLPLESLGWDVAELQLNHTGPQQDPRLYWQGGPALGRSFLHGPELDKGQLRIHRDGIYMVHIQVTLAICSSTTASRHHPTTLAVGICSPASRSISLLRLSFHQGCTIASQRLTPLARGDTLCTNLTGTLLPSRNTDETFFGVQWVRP

T2: human CD70, recombinant, N-terminally biotinylated (residues 39-193) (human, UniProt P32970 39-193, N-terminal biotin)
T2 construct: range 39-193; the same entry is used there; also called biotinylated human CD70; CD70 biotin
T2 sequence (looked up): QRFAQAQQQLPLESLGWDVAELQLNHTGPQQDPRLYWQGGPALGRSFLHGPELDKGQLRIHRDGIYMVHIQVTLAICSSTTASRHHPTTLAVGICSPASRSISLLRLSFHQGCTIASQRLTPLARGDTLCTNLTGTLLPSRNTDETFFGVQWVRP

B1: 45-TC7-V-G04 (scFv)
scFv: [skipping about 100 residues]DPGWSYYYGMDVWGQGTTVTVSSGGSGGSGGSGGSQSALTQPRSVSGSPGQSVTISCTGTSSDVGGYNYVSWYQQHPGKAPQLMIFEVSYRPSGVPDRFSGSKSGTSASLAISGLQSEDEADYYCAAWDDSLKGYVFGTGTKLTVL
notes: His-tagged
B2: 36-TC6-VI-D04 (scFv)
scFv: [skipping about 100 residues]AGGWYRESSDAFDIWGQGTMVTVSSGGSGGSGGSGGSSYELTQPPSASGTPGQRVTISCSGSSSNIGSNYVYWYQQLPGTAPKLLIYRNNQRPSGVPDRFSGSKSGTSASLAISGLRSEDEADYYCAAWDDSLSGYVFGTGIKVTVL
notes: His-tagged
B3: 41-TC7-VII-A06 (scFv)
scFv: [skipping about 100 residues]DGYSYGGTSFDYWGQGTLVTVSSGGSGGSGGSGGSQSALTQPASVSGSPGQSITISCTGTSSDVGGYDYVSWYQQHPGKAPKLMIYEVSNRPSGVSNRFSGSKSGNTASLTISGLQAEDEADYYCSSYASSGSLLFGGGTKVTVL
notes: His-tagged

One assay deals with T1, CD70 on cells (CHO-CD70, JVM-3, U266, …). Description: 1.25 µg/mL scFv on U266 cells. The method, boiled down: (§1)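 Human scFv antibodies were raised by panning a naïve human library against the CD70 extracellular domain (aa39-193). They were tested for binding to tumour cell lines with high CD70 expression (CHO-CD70, JVM3, U266) and low CD70 expression (CHO WT, K562). Cell binding was recorded per cell line, and the detection method is not stated.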
Regarding B1, the cell binding is 19700.

B2 registered a cell binding of 21300.

On to B3, for which the cell binding was 1830.

The target of a further assay is T2, human CD70, recombinant, N-terminally …. Nature of the assay: CD27 blocking ELISA, 3 µM scFv, anti-His/HRP. As for the experimental part:
Human scFv antibodies binding CD70 were generated by panning a naïve human library with the extracellular domain (aa39-193) of CD70. 53 antibodies were identified. The ability of CD27 to block CD70 binding of the identified antibodies was measured by ELISA using two different assays. In the first assay, CD27 and his-tagged scFv anti-CD70 binders were simultaneously added to surface bound CD70, and the ability of the scFv binders to bind CD70 was detected with anti-His HRP. In the second assay, plate-bound CD70 was pre-incubated with CD27 for 30 minutes, and then additional CD27 and the his-tagged scFv anti-CD70 binder was added. The ability of the scFv binders to bind CD70 was detected with anti-His HRP. FIG. 34 is a schematic of the two different CD27 blocking assays. CD70 affinity was also measured by SPR analysis. scFv antibodies were also tested for their ability to bind tumor cell lines with high (CHO-CD70, JVM3, and U266) and low levels (CHO WT and K562 of CD70 expression. Results for 39 antibodies are shown in Table 1 below.
For B1, the “anti His/HRP” value came out at 2.15.

With B2, the “anti His/HRP” value stood at 1.53.

Consider B3, for which the “anti His/HRP” value is 1.15.

Another assay deals with T1, CD70 on cells (CHO-CD70, JVM-3, U266, …). Nature of the assay: 1.25 µg/mL scFv on JVM-3 cells. The method, boiled down:
as §1
B1 gave a cell binding of 41500.

Molecule B2 yielded a cell binding of 11600.

For the molecule B3, the cell binding was found to be 1220.

Another assay has the same target. Description: 1.25 µg/mL scFv on CHO-CD70 cells. The method, boiled down: as §1
For B1, the cell binding came out at 416000.

The molecule B2 had a cell binding of 977000.

On to B3, for which the cell binding was 8940.

The next assay concerns the target T2, human CD70, recombinant, N-terminally …. Nature of the assay: SPR. The method, boiled down: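 Human scFv antibodies came from panning a naïve human library against the CD70 extracellular domain (aa39-193). Their affinity (Kd) for recombinant, N-terminally biotinylated human CD70 was measured by surface plasmon resonance (SPR) analysis.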
As for B1, the Kd came to 78.7 nM.

As for B2, the Kd is 119 nM.

In the case of B3, the Kd came out at 4020 nM.

The target is the same in another assay. Description: CD27 blocking ELISA, 3 µM scFv, strep/HRP. A general note: ELISA stands for enzyme-linked immunosorbent assay.
For the molecule B1, the strep/HRP was found to be 0.926.

In the case of B2, the strep/HRP amounted to 1.51.

As to B3, the strep/HRP amounted to 1.52.

In general, Kd refers to the concentration at which binding is half-saturated.
